Molecules are shown by their SMILES. The whole screen tested about 150,000 compounds, of which about 540 (0.36%) showed an effect of 50% or more. Some of the results follow.

This experiment concerns Plasmodium falciparum. Briefly: Primary screen in NF54 nanoGlo assay, in single point, at 2uM, 72h; a lower Z score goes with more inhibition. Particulars: timepoint 72 hour. Type of experiment: functional, Erythrocyte.
For `CCc1nc(NC(=O)C2CCCCC2)sc1-c1nc(-c2ccccc2)no1`, the % Inhibition – broadly, the change of the read-out against control, counted positive when it falls – was -10% and the Z score turned out to be 1.43.
The like results for `CC(NC(Cc1ccccc1)C(=O)N1CCCCC1)c1cccnc1` (stereo not drawn) were, in that order, -31% and 3.68.
The like results for `C[C@H](CCC(=O)NCCS(=O)(=O)O)[C@H]1CC[C@H]2[C@@H]3CC[C@@H]4C[C@H](O)CCC4(C)[C@H]3C[C@H](O)C12C` (stereo partly drawn) were, in that order, -16% and 1.43.
The like results for `CCN(C(=O)c1ccc(-c2ccc(O)c(CO)c2)cc1)C1CCOCC1` were, in that order, -2% and 0.37.
For the compound `CS(=O)(=O)N1CCC(C(=O)OCc2cccc3cccnc23)CC1`, the “% Inhibition” value is given as -9% and the Z score stood at 1.68.
The like results for `CCc1nnc(-c2ccc(=O)n(CC(=O)N3CCN(c4cccc(Cl)c4)CC3)c2)o1` were, in that order, 4% and -0.62.
The like results for `CN(CCOc1ccccc1)c1ccccc1` were, in that order, -7% and 0.66.
The like results for `CN(C)c1ccc(-c2nc(C3CCCC3)n[nH]2)cn1` were, in that order, -17% and 2.29.
On to `Cc1cccc(NC(=O)CNC(=O)C2CCCCC2)n1`, for which the “% Inhibition” value is listed as -9% and the Z score worked out at 1.28.
For `CN1C[C@@H](c2nc(-c3ccc(C(F)(F)F)cc3F)no2)CC1=O`, the “% Inhibition” value is recorded as -8% and the Z score was 1.3.
The like results for `O=C(NCCc1ccccc1)C(=O)Nc1ccc(N2CCCS2(=O)=O)cc1` were, in that order, -10% and 2.02.
The like results for `CC(C)Oc1cncc(S(=O)(=O)N(C)c2ccn(C)n2)c1` were, in that order, -18% and 2.02.
The like results for `CCc1oc(C(=O)N2CCC(c3nc(C)n[nH]3)CC2)cc1CN(CC)CC` were, in that order, -16% and 1.76.
As to `Cc1ccc2c(c1)N[C@H](C(=O)N1CCN(c3cccc(C(F)(F)F)c3)CC1)NS2(=O)=O`, the “% Inhibition” value is listed as -5% and the Z score worked out at 0.57.
The like results for `COc1ccc([C@H]2C[C@@H](O)[C@@H](O)[C@@H]2NC(=O)c2ccccc2)cc1` were, in that order, 8% and -1.21.
On to `O=C(c1nc(=O)[nH]c2ccccc12)N1CCNC(=O)C12CCCC2`, for which the “% Inhibition” value is -7% and the Z score came to 1.35.
Turning to `COc1ncccc1N(C)C(=O)c1cncc(N2CCOCC2)c1`, the “% Inhibition” value was -10% and the Z score amounted to 1.74.
As for `O=C(NC(=O)c1ccc(C(F)(F)F)cc1)Nc1nc(-c2cccs2)cc(C(F)(F)F)n1`, the “% Inhibition” value was -9% and the Z score is on record as 1.2.
In the case of `CN(C)C(=O)c1ccc(-c2noc(C3CCC3)n2)cc1`, the “% Inhibition” value is reported as -15% and the Z score worked out at 2.64.
The like results for `CCCCc1c(C)nn(-c2nc(C)c(C(=O)N3CCCCCC3)s2)c1C` were, in that order, -33% and 2.93.
The like results for `O=c1ncc2c(cnn2[C@H]2CCS(=O)(=O)C2)n1Cc1ccccc1` were, in that order, 8% and -1.11.
The like results for `COc1cc(OC)cc(C(=O)Nc2nc(C(=O)NC3CC3)cs2)c1` were, in that order, -9% and 1.72.
`C[C@H](NC(=O)N1CC2CCC1C2)c1cccc(O)c1` (stereo partly drawn): the “% Inhibition” value was determined as 1% and the Z score is -0.2.
The like results for `O=C1CN(C2CCCC2)C(=O)N1CCCn1ccnc1` were, in that order, -4% and 0.55.
On to `CN1Cc2ccc(CN(C)C(=O)CCC(F)(F)F)cc2C1`, for which the “% Inhibition” value is recorded as -4% and the Z score is on record as 0.62.
In the case of `Cn1c(=O)n(-c2ncccc2C#N)c2ccccc21`, the “% Inhibition” value is reported as 4% and the Z score is on record as -0.6.
The like results for `CCNCc1cccc(Cl)c1Cl` were, in that order, 4% and -0.5.
Take `N#CC1N(Cc2ncnn2CCF)CCCC12CCCCO2` (stereo not drawn): the “% Inhibition” value came to 4% and the Z score is reported as -0.51.
The like results for `O=C(Cc1ccccc1)N1CCc2nc(N3CCc4ccccc4C3)nc(N3CCCCC3)c2C1` were, in that order, 3% and -0.49.
The like results for `Cc1cccc(N2CCC(N3CCC[C@H](c4nc(C)n[nH]4)C3)CC2)c1` were, in that order, -7% and 0.84.
As for `Cc1ccc(=O)n(CC2CN(c3ncc(Cl)cn3)C2)n1`, the “% Inhibition” value was -12% and the Z score worked out at 1.71.
The like results for `COc1cc(CN2CCCN(c3ccc(C)cc3NC(=O)Nc3cccc(Cl)c3)C2=O)cc(OC)c1` were, in that order, -8% and 0.8.
On to `Cc1ccc(-c2n[nH]c(NC(=O)c3cnc4ccccn34)c2C)o1`, for which the “% Inhibition” value is -22% and the Z score was determined as 4.28.
The like results for `CN1C(=O)[C@]2(Nc3ccc(Cl)cc3C(=O)N2C2CC2)c2ccccc21` were, in that order, -7% and 1.06.
The like results for `Nc1nc(N)c(S(=O)(=O)c2ccccc2)c(Nc2ccccc2)n1` were, in that order, -1% and 0.07.
The like results for `Cc1ccc(CN(C)C(=O)NCCN2CCOCC2)nc1` were, in that order, -16% and 2.08.
Take `N#Cc1nc(-c2cccc3ccccc23)oc1N1CCN(C(c2ccccc2)c2ccccc2)CC1`: the “% Inhibition” value is on record as -12% and the Z score came out at 1.44.
The like results for `Cc1ccc(N2CCN(Cc3ccc(C(=O)NCCN4CCCCC4)cc3)CC2)cc1` were, in that order, -14% and 1.41.
As to `CCc1ccc([C@H](NC(=O)Nc2ccc(S(N)(=O)=O)cc2)c2cccc(F)c2)cc1`, the “% Inhibition” value is -6% and the Z score turned out to be 0.86.
The like results for `CC1CN(C(=O)CN2CCN(C)c3ccc(Cl)cc32)CC(C)O1` (stereo not drawn) were, in that order, 0% and -0.02.
Turning to `CC[C@H](NC(=O)Cc1sc(C)nc1C)c1ncnn1C`, the “% Inhibition” value is recorded as -8% and the Z score turned out to be 0.89.
The like results for `Cc1cnn([C@H]2CCN(Cc3ccccc3)C2)c1NC(=O)Cc1cccc(Cl)c1` were, in that order, 5% and -0.57.
The like results for `O=C(c1ccc2nsnc2c1)N1CC[C@H](n2ccnn2)C1` were, in that order, 6% and -0.79.
Regarding `CCN(Cc1nc(C)no1)C(=O)c1n[nH]c(N)c1Cl`, the “% Inhibition” value is on record as 14% and the Z score is reported as -1.8.
The like results for `CCN(CC)C(=O)c1cnc2nc(C)ccc2c1Nc1cc(C)cc(C)c1` were, in that order, -7% and 1.11.
The like results for `CN1CCOc2ccc(NC(=O)N3CCC[C@H]3c3cccc(F)c3)cc21` were, in that order, -5% and 0.59.
The like results for `CCC1CN(CCNC(=O)C2CCC2c2ccc(F)cc2)CCO1` (stereo not drawn) were, in that order, -11% and 1.68.
For `CN1CCC(N(c2ccccc2)S(=O)(=O)c2ccsc2)CC1`, the “% Inhibition” value is -8% and the Z score is listed as 0.89.
The like results for `OC1CCN(c2cc([C@H]3CCOC3)nc(N3CC(O)C3)n2)CC1` were, in that order, -6% and 0.78.
The like results for `CC[C@H](C)N(CC(=O)O)C(=O)Cc1cccc(F)c1F` were, in that order, -13% and 1.59.
The like results for `COc1ccc(Cl)cc1NC(=O)c1sc2ncnc(N3CCc4ccccc4C3)c2c1C` were, in that order, -1% and 0.11.
Take `O=C(NCCC1=CCCCC1)c1ccc(CN2CC(=O)N3CCC[C@H]3C2=O)cc1`: the “% Inhibition” value is on record as -21% and the Z score came to 3.89.
Regarding `CC1CN(CCN2CC(C#N)C3(C2)C(=O)Nc2ccccc23)CCO1` (stereo not drawn), the “% Inhibition” value is on record as -9% and the Z score was found to be 1.34.
The like results for `COc1ccc2cc(C(=O)N3CC(c4nc(-c5cccc(C(F)(F)F)c5)no4)C3)[nH]c2c1` were, in that order, -8% and 1.58.
Take `CC(C)NC(=O)N1CCN2C(=O)N(C(C)C)C(=O)[C@H]2C1`: the “% Inhibition” value is -19% and the Z score turned out to be 3.09.
The like results for `Nc1nonc1-c1noc(COc2ccc(Br)cc2)n1` were, in that order, -10% and 1.28.
The like results for `COc1ccc(CCN(CCc2nc(-c3ccc(C)cc3)no2)C(=O)Cc2ccc(F)cc2)cc1OC` were, in that order, -9% and 1.61.
The like results for `CC(C)(C)[C@@H](O)CCNS(=O)(=O)C1CC1` were, in that order, -11% and 1.61.
As for `O=C(NCc1ccccc1)C1CCN(c2nc3cc(Cl)ccc3s2)CC1`, the “% Inhibition” value is listed as -5% and the Z score is recorded as 0.95.
Consider `Cc1nc(N2CCOCC2)nc(C)c1NC(=O)Nc1ccccc1F`, for which the “% Inhibition” value is on record as -6% and the Z score is 0.99.
Take `CN(c1ccc(Cl)c(C(=O)NCc2ccccn2)c1)S(C)(=O)=O`: the “% Inhibition” value came out at 8% and the Z score was -1.12.
Regarding `N#Cc1c(-c2ccccc2)ccn(Cc2cccc(C(F)(F)F)c2)c1=O`, the “% Inhibition” value is reported as -5% and the Z score is recorded as 0.95.
The like results for `Cc1nn(C)cc1[C@H](C)Nc1ncnc2[nH]cnc12` were, in that order, 4% and -0.84.
The like results for `CCc1cc(N2CCc3[nH]cnc3C2)nc(N2CCCC2)n1` were, in that order, -9% and 0.89.
The like results for `CCCc1occc1C(=O)N1CCC(Cc2ncc[nH]2)CC1` were, in that order, -1% and 0.28.
Regarding `CC(C)c1cnc(NCCc2noc(C3CC3)n2)nc1`, the “% Inhibition” value is listed as 7% and the Z score is -0.85.
With `COCCO[C@H]1COCCN(Cc2ccccn2)C1`, the “% Inhibition” value came to 30% and the Z score is -3.44.
The like results for `CC(NCC1COC2(CCCC2)O1)c1cccc(F)c1` (stereo not drawn) were, in that order, -18% and 2.4.
On to `O=C(CNC(=O)c1cccc(Br)c1)NCc1cscn1`, for which the “% Inhibition” value is -5% and the Z score is 0.7.
The like results for `O=C(c1ccc2c(c1)CCO2)N(CCO)Cc1ccc(Cl)cc1` were, in that order, 2% and -0.16.
Regarding `COCCOC[C@]1(CNC(=O)c2cccc(OC)c2)C[C@@H](O)[C@@H](O)C1`, the “% Inhibition” value was -11% and the Z score was 1.64.
The like results for `CCS(=O)(=O)N1CC[C@H]2C(=O)NCCCCCN(Cc3cccnc3)[C@@H]2C1` were, in that order, -14% and 1.98.
The like results for `Cc1ncnc(NCc2ccc(CN3CCCC3)cc2)c1C` were, in that order, 0% and 0.03.
In the case of `CN(CCN1CCOC1=O)C[C@@H]1CC=CCC1`, the “% Inhibition” value is 6% and the Z score is given as -1.16.
The like results for `COC(=O)c1ccc(-c2nc(CN(C[C@H]3CCC(=O)N3)C(C)C)c(C)o2)cc1` were, in that order, -2% and 0.34.
The like results for `CN1CCN(CCN(Cc2ccc(Br)cc2F)C(=O)CC2CCCC2)CC1` were, in that order, -4% and 0.66.
`O=C1NCCN1c1cccc(N2C(=O)N[C@@H](Cc3c[nH]c4ccccc34)C2=O)c1`: the “% Inhibition” value is -10% and the Z score was 1.94.
With `CCn1cc(-c2nn(C)cc2C(=O)NCC2(C(N)=O)CCCC2)cn1`, the “% Inhibition” value was -16% and the Z score stood at 1.71.
The like results for `O=C(C1CCC1)N1CCc2sc(S(=O)(=O)Nc3ccc(F)c(Cl)c3)cc2C1` were, in that order, 3% and -0.52.
The like results for `O=S(=O)(CCN1CCCC1)N1CCc2c(F)cc(F)cc21` were, in that order, -3% and 0.33.
With `O=C(Cc1ccccc1F)N[C@H]1CCOC[C@@H]1O`, the “% Inhibition” value was -3% and the Z score is given as 0.6.
As to `O=C(CCCN1C(=O)CNC1=O)N1CCN(Cc2ccc3c(c2)OCO3)CC1`, the “% Inhibition” value is on record as -9% and the Z score worked out at 1.41.
The like results for `CC1CCC(NS(=O)(=O)CC(=O)N2CCC[C@@H]2Cc2ccccc2Cl)CC1` (stereo partly drawn) were, in that order, 1% and -0.28.
The like results for `O=C1NCCN1C(=O)NCc1ccc(-c2ccoc2)o1` were, in that order, 3% and -0.43.

For the origin of these results see ChEMBL document CHEMBL4888484, “Replenishing the malaria drug discovery pipeline: Screening and hit evaluation of the MMV Hit Generation Library 1 (HGL1) against asexual blood stage Plasmodium falciparum ,using a nano luciferase reporter read-out” (2022).
